# In all, about 420,000 compounds went through this assay and about 50,000 (12%) were called active. Inconclusive means that the source gave no clear call. Such entries were picked first, then a sample of the others. Calls come from the whole dose curve; as a rule, active = well fitted inhibition curve with a large enough effect; inconclusive = small, poorly fitted or top-dose-only effect; inactive = flat fitted curve, though single readings scatter. No potency is given beside an inconclusive call; the fits are too rough.
# Assay: qHTS for Inhibitors of human tyrosyl-DNA phosphodiesterase 1 (TDP1): qHTS in cells in presence of CPT; note: nearly all actives have a fitted effect of over 55% in size
# Conditions: chicken DT40 Tdp1-/-;hTDP1 cells + 20 nM CPT, ATP luminescence, 48 h; activity change, negative = growth inhibition: at 46.2 µM (top of the series)
# How it was run: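 Cell growth measured by CellTiter-Glo luminescence after a minimum 48 h, 37 C compound exposure with 20 nM CPT in Tdp1-knockout DT40 cells stably expressing hTDP1, seeded 400/well; qHTS titration format.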
# % is set by controls: 0 for no effect and ±100 for the full control effect; potency is the fitted concentration of half-maximal effect; tags give direction and shape of the fitted curve.
SMILES,"activity change, negative = growth inhibition",Potency
CCOC(=O)c1sc(NC(=O)CSc2nc3cccnc3n2C)nc1C,inactive: 5.13%,
CCCCC(C(=O)NC(C)(C)C)N(Cc1ccccc1Cl)C(=O)c1snc(C(N)=O)c1N (stereo not drawn),,"inconclusive [inhibitor, single point]"
O=C(CSc1nnc2scc(-c3ccccc3)n12)Nc1nsc(-c2ccccc2)n1,,active: 14.6 µM
Cc1ccc(C2CCN(C(=O)Nc3ccc(C)c(C)c3)C2)cc1 (stereo not drawn),,"inconclusive [inhibitor, single point]"
Cc1ccc(N2CC(C)Cn3c2nc2c3c(=O)n(CC(=O)OCc3ccccc3)c(=O)n2C)cc1C (stereo not drawn),,active: 11.2 µM
Cc1ccc(C)c(N2CCN(c3nc4ccccc4c(=O)n3-c3ccccc3)CC2)c1,,active: 10.3 µM
COCCn1c(SCC(=O)c2c(-c3ccccc3)n(C)c3ccccc23)nnc1-c1ccncc1,,"inconclusive [inhibitor, partial curve]"
Cc1nc(NC(=O)C(C)(C)C)sc1C(=O)Cn1cc(CCc2ccccc2)nn1,inactive: -27.5%,
Cc1ccc(NC(=O)c2sc3ncnc(N(C)C4CCCCC4)c3c2C)cc1,,"inconclusive [inhibitor, single point]"
Cc1ccn2c(Cc3ccccc3)c(-c3ccc(F)cc3)nc2c1,,active: 23.1 µM
COc1ccccc1NC(=S)N(Cc1ccc(C)cc1)Cc1ccccn1,,"inconclusive [inhibitor, single point]"
COc1ccc(OC2CCN(S(=O)(=O)c3ccc(F)cc3)CC2)cc1,inactive: 12.9%,
Cc1cc(C)c(S(=O)(=O)NCCc2csc3nc(-c4ccc(Cl)cc4)nn23)c(C)c1,,"inconclusive [inhibitor, single point]"
O=C(Oc1ccccc1)N1CCC2(CCCN(c3ccc(-c4ccccc4)cc3)C2)CC1,inactive: 11.9%,
CC(=O)c1ccc(N2CCN(C(=O)C3CCN(S(=O)(=O)c4c(C)noc4/C=C/c4ccccc4F)CC3)CC2)cc1,,"inconclusive [inhibitor, single point]"
COc1cccc(/C=N/Nc2cc(Cl)nc(C)n2)c1O,inactive: 5.26%,
CC(NCc1ccccc1)c1ccccc1O (stereo not drawn),inactive: 12.2%,
COCC(=O)NCCNc1nc2ccc(C)cc2cc1C,inactive: 0.978%,
COc1cccc2cc(C(=O)N(Cc3cccs3)Cc3cccs3)c(=O)oc12,inactive: -7.19%,
CCCc1cc(C(=O)Nc2cc(OC)ccc2OC)cs1,inactive: -10.6%,
Cc1ccc(N(CC(=O)Nc2cc(Cl)ccc2Oc2ccccc2)S(C)(=O)=O)c(C)c1,,"inconclusive [inhibitor, single point]"
CCCc1nc2c3ccccc3ccn2c1CC1CCCCC1,,"inconclusive [inhibitor, single point]"
O=C(CSc1nnc(NC(=O)c2ccccc2F)s1)NCC1CCCO1 (stereo not drawn),inactive: -7.38%,
Brc1cc2c(cc1Br)OCCOCCOCCO2,inactive: 17.5%,

SMILES,"activity change, negative = growth inhibition",Potency
Cc1ccccc1OCc1ccc(-c2nc(C#N)c(N3CCC(C(N)=O)CC3)o2)o1,,"inconclusive [inhibitor, single point]"
O=C(Cc1cccc(C(F)(F)F)c1)Nc1cc(S(=O)(=O)N2CCOCC2)ccc1N1CCCC1,,"inconclusive [inhibitor, single point]"
CCOc1ccc2cc(-c3nnc(Nc4ccc(C)cc4)s3)c(=O)oc2c1,inactive: -2.75%,
ClCCn1cnc2c(SCc3ccccc3Cl)ncnc21,,"inconclusive [inhibitor, full curve]"
CN1CCN(C(=O)OC2CC3CC2[C@H]2CCCCN2C3=O)CC1 (stereo partly drawn),inactive: -10.2%,
CC1(Oc2ccc(Cl)cc2)CCN(Cc2csc3ccccc23)C1 (stereo not drawn),,"inconclusive [inhibitor, single point]"
COc1ccc2nc(NC(=O)c3cc(S(=O)(=O)N4CCOCC4)ccc3C)sc2c1,,"inconclusive [inhibitor, single point]"
COc1ccc(Cl)cc1NC(=O)CN(C)C(=O)c1cc2c(s1)CCCC2,,"inconclusive [inhibitor, single point]"
COc1cccc(Nc2nc3ccc(C(=O)c4ccccc4)cc3n3c(C)nnc23)c1,,active: 11.6 µM
O=C1CSC(c2ccncc2)N1Cc1ccco1 (stereo not drawn),inactive: -3.29%,
COc1ccc(/C=C/C(=O)c2ccc(Cl)s2)cc1O,,"inconclusive [inhibitor, single point]"
COc1ccccc1Nc1nc(-c2ccccc2O)nc2ccccc12,,"inconclusive [inhibitor, single point]"
CCOc1ccc2c(c1)c(=O)c(S(=O)(=O)c1ccc(Cl)cc1)cn2Cc1ccccc1C,,"inconclusive [inhibitor, full curve, poor fit]"
Cc1ccc(C)c(S(=O)(=O)N2CCCCC2CCNC(=O)C(=O)NC2CCCC2)c1 (stereo not drawn),,"inconclusive [inhibitor, full curve, poor fit]"
CC(=O)Nc1ccc(S(=O)(=O)NCCS(=O)(=O)N2CCN(c3ccccc3F)CC2)cc1,,active: 16.4 µM
COC(=O)C(Cc1ccccc1)OS(N)(=O)=O (stereo not drawn),,"inconclusive [inhibitor, single point]"
O=C(Nc1nnc(-c2ccc(Cl)cc2)o1)Nc1ccccc1F,inactive: -16.4%,
O=C(NC1CCCc2ccccc21)C1CCN(S(=O)(=O)c2cccc(C(F)(F)F)c2)CC1 (stereo not drawn),,"inconclusive [inhibitor, single point]"
COC(=O)[C@H](Cc1ccccc1)NC(=O)Cn1cnc2c(OCc3ccccc3)ncnc21,,"inconclusive [inhibitor, single point]"
CC(=O)NCc1ccc(S(=O)(=O)NC(C(=O)O)C(C)C)cc1 (stereo not drawn),inactive: -0.916%,
Cc1onc(C(=O)N2CCOCC2)c1[N+](=O)[O-],inactive: -5.47%,
C#CCCCCCCCCCCCC(=O)CC(O)COC(C)=O (stereo not drawn),inactive: -0.918%,
COc1ccccc1Cc1c(-c2ccc(C)cc2)nc2ccc(Cl)cn12,,"inconclusive [inhibitor, partial curve, poor fit]"
COc1ccc(C(=O)N2CCC3(CC2)CN(c2cccc(-c4ccccc4)c2)C3)cc1,,"inconclusive [inhibitor, single point]"
